In PubChem BioAssay AID504332 (National Center for Advancing Translational Sciences (NCATS), 2011):
Screen size: about 350,000 compounds; about 31,000 (8.9%) were called active. This list was built around the results that the source calls inconclusive (neither active nor inactive); the mix of calls is not that of the screen. Calls follow the shape of the dose curve; as a rule, active = well fitted inhibition curve with a large enough effect; inconclusive = small, poorly fitted or top-dose-only effect; inactive = no such curve, though single readings can be large or run the other way. Potencies of inconclusive entries are doubtful fits and often do not repeat.

Molecular target: Histone-lysine N-methyltransferase EHMT2 (Homo sapiens) (UniProt Q96KQ7)
Assay: qHTS Assay for Inhibitors of Histone Lysine Methyltransferase G9a; also: nearly all actives have a fitted effect of over 75% in size
Conditions: G9a H3K9 monomethylation, AlphaScreen, 2 h; activity, negative = inhibition: at 59 µM (top of the series) unless noted
Method in brief: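 Chemiluminescent proximity detection of H3K9 monomethylation, read after 10 min bead incubation in the dark. Reaction: 20 nM G9a, 500 nM biotin-H3K9 peptide, 20 uM SAM cofactor, 2 h, room temperature, following 15 min enzyme-compound preincubation.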
% is scaled to controls: 0 for no effect and ±100 for the full control effect; potency is read from the fitted curve at half-maximal effect; tags tell the direction and shape of the fitted curve.

Sequence of UniProt Q96KQ7 (Q96KQ7 whole entry, looked up): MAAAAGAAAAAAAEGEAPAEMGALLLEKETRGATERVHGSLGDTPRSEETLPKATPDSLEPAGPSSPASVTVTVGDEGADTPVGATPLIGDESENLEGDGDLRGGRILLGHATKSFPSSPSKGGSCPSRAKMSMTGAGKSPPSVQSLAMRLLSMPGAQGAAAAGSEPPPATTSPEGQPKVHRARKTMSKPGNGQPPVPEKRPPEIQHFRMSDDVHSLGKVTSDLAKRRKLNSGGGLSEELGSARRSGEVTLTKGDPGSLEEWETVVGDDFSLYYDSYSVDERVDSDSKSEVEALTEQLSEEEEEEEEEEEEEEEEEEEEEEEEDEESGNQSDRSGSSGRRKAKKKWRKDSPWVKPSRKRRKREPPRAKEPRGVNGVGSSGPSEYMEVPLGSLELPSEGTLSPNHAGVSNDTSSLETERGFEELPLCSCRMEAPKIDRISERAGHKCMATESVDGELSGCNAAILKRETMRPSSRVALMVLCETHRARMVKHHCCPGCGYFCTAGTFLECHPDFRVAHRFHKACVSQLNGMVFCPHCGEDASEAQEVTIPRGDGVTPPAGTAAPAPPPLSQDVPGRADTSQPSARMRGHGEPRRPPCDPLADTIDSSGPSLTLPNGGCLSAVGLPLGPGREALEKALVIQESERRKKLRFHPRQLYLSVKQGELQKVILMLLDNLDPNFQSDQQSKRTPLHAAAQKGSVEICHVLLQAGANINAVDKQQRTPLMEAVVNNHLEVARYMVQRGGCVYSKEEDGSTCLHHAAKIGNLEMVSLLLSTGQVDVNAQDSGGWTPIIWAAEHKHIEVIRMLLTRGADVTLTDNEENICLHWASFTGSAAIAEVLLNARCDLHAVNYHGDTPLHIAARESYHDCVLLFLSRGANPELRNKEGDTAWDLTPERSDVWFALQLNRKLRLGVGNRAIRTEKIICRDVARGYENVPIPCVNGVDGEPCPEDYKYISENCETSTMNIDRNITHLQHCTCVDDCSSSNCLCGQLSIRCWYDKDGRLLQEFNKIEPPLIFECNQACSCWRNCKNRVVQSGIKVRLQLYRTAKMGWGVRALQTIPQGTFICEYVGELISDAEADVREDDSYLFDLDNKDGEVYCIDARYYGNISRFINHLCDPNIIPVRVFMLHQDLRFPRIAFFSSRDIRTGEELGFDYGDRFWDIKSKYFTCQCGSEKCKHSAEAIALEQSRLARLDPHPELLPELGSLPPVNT

Row | Compound | Potency | activity, negative = inhibition
1 | O=c1c(Cl)c2oc3ccccc3nc-2c2ccccc12 | inconclusive: 3.98 µM [inhibitor, full curve, poor fit] | –
2 | C/C=C\C=C/C(=O)Nc1cccc(C2=NOC3(C2)C[C@H](C(N)=O)N(C(=O)CC)C3)c1 (some centres not stated) | inconclusive: 14.1 µM [inhibitor, single point] | –
3 | c1ccc(Cc2nn3c(-c4ccncc4)nnc3s2)cc1 | inconclusive: 3.16 µM [inhibitor, partial curve, poor fit] | –
4 | Cc1ccc(S(=O)(=O)N2CCN(Cc3csc(C)n3)CC2)cc1 | inconclusive: 44.7 µM [inhibitor, partial curve, poor fit] | –
5 | CCn1c(C)[n+](Cc2ccccc2)c2ccc(C(=O)OC)cc21 | active: 31.6 µM | –
6 | CC(O)CNCCCOc1ccccc1OCc1ccccc1 (configuration not stated) | active: 12.6 µM | –
7 | O=C(Nc1ccccc1C(=O)O)c1ccc(Br)o1 | inconclusive: 44.7 µM [inhibitor, partial curve, poor fit] | –
8 | CCOc1cc(/C=C2\C(=N)N3N=C(N4CCCCC4)SC3=NC2=O)ccc1OC(=O)c1ccco1 | inconclusive: 70.8 µM [inhibitor, single point] | –
9 | COc1ccc(NC(=O)c2ccc3[nH]c(C)c(C)c3c2)cc1 | inconclusive: 50.1 µM [inhibitor, partial curve, poor fit] | –
10 | O=C(O)c1ccccc1SC1CC(=O)N(c2ccccc2)C1=O (configuration not stated) | inconclusive: 1.41 µM [inhibitor, partial curve, poor fit] | –
11 | Cc1cc(=O)oc2cc(OC(=O)c3nn(C(C)C)c(=O)c4ccccc34)ccc12 | inconclusive: 35.5 µM [inhibitor, single point] | –
12 | c1ccc(CSc2ccc(-c3ccco3)nn2)cc1 | active: 25.1 µM | –
13 | Cc1cc(C(=O)OCC(=O)NCc2ccccc2Cl)c(C)o1 | – | inactive: 0.129% [at 102 µM]
14 | Cc1cccc2cc(CN(CC(C)C)S(=O)(=O)c3ccccc3)c(=O)[nH]c12 | – | inactive: 14% [at 102 µM]
15 | O=C(c1ccc(Oc2ccccc2)cc1)c1nc2c(n1O)CCCC2 | inconclusive: 79.4 µM [inhibitor, single point] | –
16 | CCOc1ccccc1C(=O)NC1CC2CCCC(C1)N2C1CC1 (configuration not stated) | inconclusive: 89.1 µM [inhibitor, single point] | –
17 | COc1ccc(NC(=O)c2ccc(-n3cncn3)c([N+](=O)[O-])c2)cc1 | inconclusive: 50.1 µM [inhibitor, partial curve, poor fit] | –
18 | COC(=O)[C@@H]1CC[C@H](C)[C@@H](c2ccc(C)cc2)N1C(=O)c1ccc(/C=N/OC[C@@H](O)COCc2ccco2)cc1 | inconclusive: 89.1 µM [inhibitor, single point] | –
19 | O=S(=O)(N/N=C1\CC(c2ccccc2)Oc2ccccc21)c1ccccc1 (configuration not stated) | – | inactive: 36.8% [at 0.501 µM]
20 | CCc1ccc(S(=O)(=O)N2CCN(Cc3ccco3)CC2)cc1 | – | inactive: 86.4% [at 102 µM]
21 | O=C(CC1Oc2ccc(Cl)cc2NC1=O)NCc1ccccc1 (configuration not stated) | inconclusive: 10 µM [inhibitor, partial curve, poor fit] | –
22 | OCCN1CCN(CC(O)COc2ccc3ccccc3c2)CC1 (configuration not stated) | inconclusive: 1.41 µM [inhibitor, full curve, poor fit] | –
23 | CCCCn1c(SCC(=O)NCc2ccco2)nc2c1c(=O)n(C)c(=O)n2C | inconclusive: 39.8 µM [inhibitor, single point] | –

Row | Compound | Potency | activity, negative = inhibition
24 | O=c1oc2cc(O)ccc2cc1S(=O)(=O)c1ccccc1 | – | inactive: 52.7% [at 102 µM]
25 | Cc1ccc(S(=O)(=O)Nc2ccc(NC(=O)CN3CCCCC3)c(Cl)c2)cc1 | inconclusive: 2.51 µM [inhibitor, partial curve, poor fit] | –
26 | O=C(O)CC1=C(Nc2ccccc2)C(=O)N(c2ccccc2)C1c1ccc(Cl)cc1 (configuration not stated) | inconclusive: 56.2 µM [inhibitor, partial curve, poor fit] | –
27 | CC(=O)N[C@H](C(=O)O)C(C)(C)SN=O | – | inactive: 6.8% [at 12.7 µM]
28 | CC(C(=O)NCCN1C(=O)S/C(=C\c2cccnc2)C1=O)N1C(=O)c2ccccc2C1=O (configuration not stated) | – | inactive: 10%
29 | Cc1ccc(-n2c(SCC(=O)c3c(N)n(C)c(=O)n(C)c3=O)nc3sc4c(c3c2=O)CCCC4)c(C)c1 | inconclusive: 89.1 µM [inhibitor, single point] | –
30 | Cc1cc(C)c(S(=O)(=O)NCC2CCC(C(=O)NCCCN3CCOCC3)CC2)c(C)c1 (configuration not stated) | inconclusive: 79.4 µM [inhibitor, partial curve, poor fit] | –
31 | CCOc1ccc(C2C(C#N)=C(N)SC(N)=C2C#N)cc1OCC | inconclusive: 1.12 µM [inhibitor, single point] | –
32 | Cc1cccc(NC(=O)c2ccc3c(c2)C(=O)N(c2ccccc2C)C3=O)n1 | inconclusive: 79.4 µM [inhibitor, partial curve, poor fit] | –
33 | CCOc1ccc(NC(=O)N(C2CCCCC2)C(C)c2cccnc2)cc1 (configuration not stated) | inconclusive: 50.1 µM [inhibitor, partial curve, poor fit] | –
34 | COc1ccc(Oc2ccc(/C=N/NC(=O)c3cccnc3)cc2[N+](=O)[O-])cc1 | inconclusive: 25.1 µM [inhibitor, partial curve, poor fit] | –
35 | CCN(CC)CCCC(C)NC(=O)c1c(NC(=O)c2ccccc2)sc2c1CCCC2 (configuration not stated) | active: 79.4 µM | –
36 | O=C(CN(CC1CCCO1)C(=O)CNS(=O)(=O)c1ccc(Cl)cc1)NCC1CCCO1 (configuration not stated) | – | inactive: -12.6%
37 | Nc1nnc(COc2cccc(C(F)(F)F)c2)s1 | – | inactive: 2.83% [at 102 µM]
38 | Cc1cc(C)n2nc(C(=O)Nc3nnc(C4CC4)s3)nc2n1 | – | inconclusive: -108% [inhibitor]
39 | Cc1ccc(C2CC(=O)Oc3ccc(O)cc32)cc1 (configuration not stated) | active: 11.2 µM | –
40 | CN(C)CCCN1C(=O)c2cccc3c([N+](=O)[O-])ccc(c23)C1=O | inconclusive: 31.6 µM [inhibitor, single point] | –
41 | CC(C)S(=O)(=O)c1nsc2nc(=O)c(/C=C3\C=Nc4ccccc43)c(N)n12 | inconclusive: 56.2 µM [inhibitor, partial curve] | –
42 | Cn1c(CC(=O)NNC(=O)c2cccnc2)nc2ccccc21 | inconclusive: 0.891 µM [inhibitor, single point] | –
43 | COc1ccc(/C=C/C(=O)O/N=C(\N)c2cccnc2)cc1OC | – | inconclusive: -69.9% [inhibitor]
44 | CCCCCCn1cc(C(=O)O)c(=O)c2ccccc21 | active: 44.7 µM | –
45 | Cc1ccc(-c2nc(N)sc2-c2ccccc2)cc1C | inconclusive: 8.91 µM [inhibitor, partial curve, poor fit] | –
46 | N#CC(Nc1ccccc1)c1ccccc1OCc1ccccc1 (configuration not stated) | – | inactive: 53.1% [at 12.7 µM]

Row | Compound | Potency | activity, negative = inhibition
47 | O=C(NCc1ccccn1)c1ccc(/C=N/O)nc1 | – | inactive: -4.89% [at 102 µM]
48 | CCOC(=O)c1c(C)[nH]c(C)c1C(=O)COC(=O)/C=C/c1ccco1 | inconclusive: 7.08 µM [inhibitor, single point] | –
49 | Cc1ccc(-n2c(-c3ccccc3)n[nH]c2=S)c(C)c1 | active: 1.78 µM | –
50 | O=C(O)c1cccc(Nc2nc(-c3ccc([N+](=O)[O-])cc3)nc3ccccc23)c1 | inconclusive: 89.1 µM [inhibitor, single point] | –
51 | Cc1cc(C(=O)COC(=O)c2ccc(NC(=O)CC#N)cc2)c(C)n1C1CC1 | inconclusive: 79.4 µM [inhibitor, single point] | –
52 | CCOC(=O)C1CCCN(CC(=O)Nc2c(C(=O)OC)[nH]c3ccccc23)C1 (configuration not stated) | – | inactive: -26.1% [at 102 µM]
53 | CCOC(=O)c1c(-c2ccc(F)cc2)csc1NC(=O)C1CC=CCC1C(=O)O (configuration not stated) | active: 15.8 µM | –
54 | Cc1cc(C)c2nc(NC3=NCN(CCN4CCOCC4)CN3)nc(C)c2c1 | inconclusive: 79.4 µM [inhibitor, partial curve, poor fit] | –
55 | CN1CCN(/C=N/c2sc3c(c2C#N)CCCCC3)CC1 | inconclusive: 56.2 µM [inhibitor, partial curve, poor fit] | –
56 | O=C(Nc1ccc(C(F)(F)F)cc1)c1ccc(NC(=O)C2CCCO2)cc1 (configuration not stated) | inconclusive: 79.4 µM [inhibitor, single point] | –
57 | CCc1ccc(S(=O)(=O)c2c(C(=O)c3ccc(C)c(C)c3)cnc3ccccc23)cc1 | inconclusive: 22.4 µM [inhibitor, partial curve, poor fit] | –
58 | O=C(NCc1n[nH]c(=S)n1-c1ccc(Cl)c(Cl)c1)c1cccs1 | inconclusive: 10 µM [inhibitor, partial curve, poor fit] | –
59 | Cc1ccc(-c2csc(NCCn3c(-c4ccncc4)nc4ccccc43)n2)cc1 | active: 20 µM | –
60 | COCCNC(=O)CSc1nc2ccccc2nc1Cc1ccc(C)cc1 | – | inactive: 3.85%
61 | CC1=C(C(=O)Nc2ccc(C)cc2)C(c2ccc(N(C)C)cc2)NC(=O)N1 (configuration not stated) | inconclusive: 39.8 µM [inhibitor, single point] | –
62 | CCn1c(=O)cc(OCC(=O)Nc2cc(OC)c(OC)c(OC)c2)c2ccccc21 | – | inactive: -37%
63 | CC(C)Cc1nc(C(N)=O)c2[nH]c(=O)n(-c3ccc(F)cc3)c2n1 | inconclusive: 70.8 µM [inhibitor, single point] | –
64 | Cc1cccc(NC(=O)C2c3ccccc3C(=O)N3CCc4ccccc4C23)n1 (configuration not stated) | inconclusive: 70.8 µM [inhibitor, single point] | –
65 | COc1cc(/C=C2/C(=N)N3C(=NC2=O)SN=C3S(C)(=O)=O)ccc1OS(=O)(=O)c1ccc(C)cc1 | inconclusive: 39.8 µM [inhibitor, single point] | –
66 | COc1ccc(CC(=O)NNC(=O)CSc2nc(C)c(C)c(=O)[nH]2)cc1 | – | inactive: -26.6% [at 102 µM]
67 | O=[N+]([O-])c1ccc(/C=N/Nc2nc(-c3ccccc3)c3cc(Br)ccc3n2)o1 | inconclusive: 89.1 µM [inhibitor, single point] | –
